In PMC12820563:
The list shows a part of the results. The list includes weakly bound sequences.

Target: T1, MBP-FoxP3dN (UniProt Q99JB6)
T1 sequence: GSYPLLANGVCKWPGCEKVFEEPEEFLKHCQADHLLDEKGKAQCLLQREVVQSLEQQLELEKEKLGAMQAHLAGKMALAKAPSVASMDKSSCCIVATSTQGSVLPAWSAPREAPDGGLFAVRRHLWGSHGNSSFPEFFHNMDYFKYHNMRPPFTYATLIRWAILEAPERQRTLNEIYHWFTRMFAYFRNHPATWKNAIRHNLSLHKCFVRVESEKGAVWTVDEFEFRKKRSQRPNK
Experiment: PD-seq (MBP pull-down with sequencing)
Details: 20 mM Tris-HCl pH 7.5, 100 mM NaCl, 1.5 mM MgCl2, 0.4 uM protein, 0.1 uM dsDNA library, 30 min, room temperature, amylose pull-down; high values mean tight binding; double strand, one strand shown

Row | Sequence | binding signal (RPM ratio (pull-down/input))
1 | GATGATTGTTCTCCCAGCTGATGAATTGAGGCGGTCGAGTAAACAAATTTTCCTAATCTTTCTGTTCAAGCGCCATCTAC | 1
2 | GATGATTGTTCTCCCAGCTGATGAATTAAGCGGGTCGAGTAAACAAATTTTCCTAATCTTTCTGTTCAAGCGCCATCTAC | 0.523
3 | GATGATTGTTCTCCCAGCTGATGAATTTTGGTACTCGAGTAAACAAATTTTCCTAATCTTTCTGTTCAAGCGCCATCTAC | 0.641
4 | GATGATTGTTCTCCCAGCTGATGAATTTTGAAAGTCGAGTAAACAAATTTTCCTAATCTTTCTGTTCAAGCGCCATCTAC | 0.28
5 | GATGATTGTTCTCCCAGCTGATGAATTTCACCCCTCGAGTAAACAAATTTTCCTAATCTTTCTGTTCAAGCGCCATCTAC | 0.332
6 | GATGATTGTTCTCCCAGCTGATGAATTGACCTAATCGAGTAAACAAATTTTCCTAATCTTTCTGTTCAAGCGCCATCTAC | 0.344
7 | GATGATTGTTCTCCCAGCTGATGAATTGAAGTATTCGAGTAAACAAATTTTCCTAATCTTTCTGTTCAAGCGCCATCTAC | 0.94
8 | GATGATTGTTCTCCCAGCTGATGAATTTTGTAACTCGAGTAAACAAATTTTCCTAATCTTTCTGTTCAAGCGCCATCTAC | 3.34
9 | GATGATTGTTCTCCCAGCTGATGAATTATACGGTTCGAGTAAACAAATTTTCCTAATCTTTCTGTTCAAGCGCCATCTAC | 0.434
10 | GATGATTGTTCTCCCAGCTGATGAATTATATAATTCGAGTAAACAAATTTTCCTAATCTTTCTGTTCAAGCGCCATCTAC | 0.565
11 | GATGATTGTTCTCCCAGCTGATGAATTGCGTATCTCGAGTAAACAAATTTTCCTAATCTTTCTGTTCAAGCGCCATCTAC | 4.44
12 | GATGATTGTTCTCCCAGCTGATGAATTGATCGCATCGAGTAAACAAATTTTCCTAATCTTTCTGTTCAAGCGCCATCTAC | 1.04
13 | GATGATTGTTCTCCCAGCTGATGAATTCTAATGCTCGAGTAAACAAATTTTCCTAATCTTTCTGTTCAAGCGCCATCTAC | 0.63
14 | GATGATTGTTCTCCCAGCTGATGAATTCACGGTATCGAGTAAACAAATTTTCCTAATCTTTCTGTTCAAGCGCCATCTAC | 0.478
15 | GATGATTGTTCTCCCAGCTGATGAATTTGTTGGTTCGAGTAAACAAATTTTCCTAATCTTTCTGTTCAAGCGCCATCTAC | 7.67
16 | GATGATTGTTCTCCCAGCTGATGAATTCAATTCGTCGAGTAAACAAATTTTCCTAATCTTTCTGTTCAAGCGCCATCTAC | 0.665
17 | GATGATTGTTCTCCCAGCTGATGAATTGAGCAGCTCGAGTAAACAAATTTTCCTAATCTTTCTGTTCAAGCGCCATCTAC | 1.12
18 | GATGATTGTTCTCCCAGCTGATGAATTATGATAGTCGAGTAAACAAATTTTCCTAATCTTTCTGTTCAAGCGCCATCTAC | 1.14
